# In the supplement of paper PMC8728848:
# This is one part of the list.
# B1: FimA-N3 (Actinomyces oris) (protein)
# chain: MHHHHHHSSGVDLGTENLYFQSNAGLQGAQFQLYKAKNAYANTCSNEKEGAPIAINGQTTLTTDAQGAIDIKGLFISDSIDGADRDNQVNAMERCYVLVETKAPAGYVLPAGNGAATPVKVKAGEETTDN
# Columns and labels:
# Assay in all cases: glycan array binding signal (z-score within array); higher = stronger binding
# Details in all cases: glycan notation: IUPAC condensed, linker removed
# Fuc(a1-3)GlcNAc = biological target: Fuc(a1-3)GlcNAc
# Method in brief: (§1)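 From the Consortium for Functional Glycomics database, 3228 arrays were curated, keeping only those whose protein sequence was available. Binding is given as a within-array Z-score averaged across arrays sharing a protein sequence and across linkers. Negative Z-scores can be read as non-binding.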
# [1] = biological target: Fuc(a1-3)[Gal(b1-4)]Glc6S
# Method in brief: as §1
# [2] = biological target: Fuc(a1-3)[Gal(b1-4)]GlcNAc
# Method in brief: as §1
# [3] = biological target: Fuc(a1-3)[Gal(b1-4)]GlcNAc(b1-2)Man
# Method in brief: as §1
# [4] = biological target: Fuc(a1-3)[Gal(b1-4)]GlcNAc(b1-2)Man(a1-3)[Fuc(a1-3)[Gal(b1-4)]GlcNAc(b1-2)Man(a1-6)]Man(b1-4)GlcNAc(b1-4)GlcNAc
# Method in brief: as §1
# [5] = biological target: Fuc(a1-3)[Gal(b1-4)]GlcNAc(b1-2)Man(a1-3)[Fuc(a1-3)[Gal(b1-4)]GlcNAc(b1-2)Man(a1-6)]Man(b1-4)GlcNAc(b1-4)[Fuc(a1-6)]GlcNAc
# Method in brief: as §1
# [6] = biological target: Fuc(a1-3)[Gal(b1-4)]GlcNAc(b1-3)Gal(b1-3)[Fuc(a1-4)]GlcNAc
# Method in brief: as §1
# [7] = biological target: Fuc(a1-3)[Gal(b1-4)]GlcNAc(b1-3)Gal(b1-4)[Fuc(a1-3)]GlcNAc
# Method in brief: as §1
# [8] = biological target: Fuc(a1-3)[Gal(b1-4)]GlcNAc(b1-3)Gal(b1-4)[Fuc(a1-3)]GlcNAc(b1-3)Gal(b1-4)[Fuc(a1-3)]GlcNAc
# Method in brief: as §1
# [9] = biological target: Fuc(a1-3)[Gal(b1-4)]GlcNAc(b1-3)GalNAc
# Method in brief: as §1
# [10] = biological target: Fuc(a1-3)[Gal(b1-4)]GlcNAc(b1-6)GalNAc
# Method in brief: as §1
# [11] = biological target: Fuc(a1-3)[Gal(b1-4)]GlcNAc(b1-6)[Gal(b1-3)GlcNAc(b1-3)]Gal(b1-4)Glc
# Method in brief: as §1
# [12] = biological target: Fuc(a1-3)[Gal(b1-4)]GlcNAc6S
# Method in brief: as §1
# [13] = biological target: Fuc(a1-3)[Gal3S(b1-4)]Glc
# Method in brief: as §1
# [14] = biological target: Fuc(a1-3)[Gal3S(b1-4)]GlcNAc
# Method in brief: as §1
# [15] = biological target: Fuc(a1-3)[Gal3S(b1-4)]GlcNAc6S
# Method in brief: as §1
# [16] = biological target: Fuc(a1-3)[GalNAc(b1-4)]GlcNAc
# Method in brief: as §1
# [17] = biological target: Fuc(a1-3)[GalNAc(b1-4)]GlcNAc6S
# Method in brief: as §1
# Fuc(a1-4)GlcNAc = biological target: Fuc(a1-4)GlcNAc
# Method in brief: as §1
# Fuc(b1-3)GlcNAc = biological target: Fuc(b1-3)GlcNAc
# Method in brief: as §1
# Gal(a1-2)Gal = biological target: Gal(a1-2)Gal
# Method in brief: as §1
# Gal(a1-3)Gal = biological target: Gal(a1-3)Gal
# Method in brief: as §1
# Gal(a1-3)Gal(b1-3)GlcNAc = biological target: Gal(a1-3)Gal(b1-3)GlcNAc
# Method in brief: as §1
# [18] = biological target: Gal(a1-3)Gal(b1-3)GlcNAc(b1-2)Man
# Method in brief: as §1
# [19] = biological target: Gal(a1-3)Gal(b1-3)GlcNAc(b1-2)Man(a1-3)[Gal(a1-3)Gal(b1-3)GlcNAc(b1-2)Man(a1-6)]Man(b1-4)GlcNAc(b1-4)GlcNAc
# Method in brief: as §1
# [20] = biological target: Gal(a1-3)Gal(b1-3)GlcNAc(b1-3)GalNAc
# Method in brief: as §1
# [21] = biological target: Gal(a1-3)Gal(b1-3)GlcNAc(b1-6)GalNAc
# Method in brief: as §1
# [22] = biological target: Gal(a1-3)Gal(b1-3)[Fuc(a1-4)]GlcNAc(b1-2)Man(a1-3)[Gal(a1-3)Gal(b1-3)[Fuc(a1-4)]GlcNAc(b1-2)Man(a1-6)]Man(b1-4)GlcNAc(b1-4)GlcNAc
# Method in brief: as §1
# Gal(a1-3)Gal(b1-4)Glc = biological target: Gal(a1-3)Gal(b1-4)Glc
# Method in brief: as §1
# Gal(a1-3)Gal(b1-4)GlcNAc = biological target: Gal(a1-3)Gal(b1-4)GlcNAc
# Method in brief: as §1
# [23] = biological target: Gal(a1-3)Gal(b1-4)GlcNAc(b1-2)Man
# Method in brief: as §1
# [24] = biological target: Gal(a1-3)Gal(b1-4)GlcNAc(b1-2)Man(a1-3)[Gal(a1-3)Gal(b1-4)GlcNAc(b1-2)Man(a1-6)]Man(b1-4)GlcNAc(b1-4)GlcNAc
# Method in brief: as §1
# [25] = biological target: Gal(a1-3)Gal(b1-4)GlcNAc(b1-3)GalNAc
# Method in brief: as §1
# [26] = biological target: Gal(a1-3)Gal(b1-4)GlcNAc(b1-6)GalNAc
# Method in brief: as §1
# [27] = biological target: Gal(a1-3)Gal(b1-4)[Fuc(a1-3)]GlcNAc
# Method in brief: as §1
# [28] = biological target: Gal(a1-3)Gal(b1-4)[Fuc(a1-3)]GlcNAc(b1-2)Man(a1-3)[Gal(a1-3)Gal(b1-4)[Fuc(a1-3)]GlcNAc(b1-2)Man(a1-6)]Man(b1-4)GlcNAc(b1-4)GlcNAc
# Method in brief: as §1
# Gal(a1-3)GalNAc = biological target: Gal(a1-3)GalNAc
# Method in brief: as §1
# [29] = biological target: Gal(a1-3)[Gal(a1-4)]Gal(b1-4)GlcNAc
# Method in brief: as §1
# [30] = biological target: Gal(a1-4)Gal(b1-3)GlcNAc(b1-2)Man(a1-3)[Gal(a1-4)Gal(b1-3)GlcNAc(b1-2)Man(a1-6)]Man(b1-4)GlcNAc(b1-4)GlcNAc
# Method in brief: as §1
# Gal(a1-4)Gal(b1-4)Glc = biological target: Gal(a1-4)Gal(b1-4)Glc
# Method in brief: as §1
# Gal(a1-4)Gal(b1-4)GlcNAc = biological target: Gal(a1-4)Gal(b1-4)GlcNAc
# Method in brief: as §1
# [31] = biological target: Gal(a1-4)Gal(b1-4)GlcNAc(b1-2)Man(a1-3)[Gal(a1-4)Gal(b1-4)GlcNAc(b1-2)Man(a1-6)]Man(b1-4)GlcNAc(b1-4)GlcNAc
# Method in brief: as §1
# [32] = biological target: Gal(a1-4)Gal(b1-4)GlcNAc(b1-3)Gal(b1-4)Glc
# Method in brief: as §1
# Gal(a1-4)GlcNAc = biological target: Gal(a1-4)GlcNAc
# Method in brief: as §1
# Gal(a1-6)Glc = biological target: Gal(a1-6)Glc
# Method in brief: as §1
binder,measurement,setting,value
B1,glycan array binding signal (z-score),Fuc(a1-3)GlcNAc,-0.15
same,glycan array binding signal (z-score),[1],0.088
same,glycan array binding signal (z-score),[2],-0.369
same,glycan array binding signal (z-score),[3],-0.667
same,glycan array binding signal (z-score),[4],-0.24
same,glycan array binding signal (z-score),[5],-0.425
same,glycan array binding signal (z-score),[6],-0.373
same,glycan array binding signal (z-score),[7],-0.338
same,glycan array binding signal (z-score),[8],-0.114
same,glycan array binding signal (z-score),[9],0.18
same,glycan array binding signal (z-score),[10],-0.189
same,glycan array binding signal (z-score),[11],-0.182
same,glycan array binding signal (z-score),[12],-0.332
same,glycan array binding signal (z-score),[13],-0.479
same,glycan array binding signal (z-score),[14],-0.417
same,glycan array binding signal (z-score),[15],0.377
same,glycan array binding signal (z-score),[16],0.059
same,glycan array binding signal (z-score),[17],4.08
same,glycan array binding signal (z-score),Fuc(a1-4)GlcNAc,-0.103
same,glycan array binding signal (z-score),Fuc(b1-3)GlcNAc,-0.128
same,glycan array binding signal (z-score),Gal(a1-2)Gal,-0.164
same,glycan array binding signal (z-score),Gal(a1-3)Gal,-0.131
same,glycan array binding signal (z-score),Gal(a1-3)Gal(b1-3)GlcNAc,-0.271
same,glycan array binding signal (z-score),[18],-0.429
same,glycan array binding signal (z-score),[19],-0.119
same,glycan array binding signal (z-score),[20],-0.493
same,glycan array binding signal (z-score),[21],-0.12
same,glycan array binding signal (z-score),[22],-0.191
same,glycan array binding signal (z-score),Gal(a1-3)Gal(b1-4)Glc,-0.324
same,glycan array binding signal (z-score),Gal(a1-3)Gal(b1-4)GlcNAc,-0.354
same,glycan array binding signal (z-score),[23],-0.007
same,glycan array binding signal (z-score),[24],1.03
same,glycan array binding signal (z-score),[25],0.243
same,glycan array binding signal (z-score),[26],-0.335
same,glycan array binding signal (z-score),[27],-0.563
same,glycan array binding signal (z-score),[28],-0.667
same,glycan array binding signal (z-score),Gal(a1-3)GalNAc,-0.42
same,glycan array binding signal (z-score),[29],-0.201
same,glycan array binding signal (z-score),[30],-0.264
same,glycan array binding signal (z-score),Gal(a1-4)Gal(b1-4)Glc,-0.294
same,glycan array binding signal (z-score),Gal(a1-4)Gal(b1-4)GlcNAc,0.769
same,glycan array binding signal (z-score),[31],-0.557
same,glycan array binding signal (z-score),[32],-0.388
same,glycan array binding signal (z-score),Gal(a1-4)GlcNAc,-0.69
same,glycan array binding signal (z-score),Gal(a1-6)Glc,-0.713
